{"sequences": {"note": "Protein sequences, listed by entry. Tags and fused reporters are not part of them. Lines headed by an entry give the natural chain unless they say otherwise; changes in a name come on top.", "UniProt P40337": "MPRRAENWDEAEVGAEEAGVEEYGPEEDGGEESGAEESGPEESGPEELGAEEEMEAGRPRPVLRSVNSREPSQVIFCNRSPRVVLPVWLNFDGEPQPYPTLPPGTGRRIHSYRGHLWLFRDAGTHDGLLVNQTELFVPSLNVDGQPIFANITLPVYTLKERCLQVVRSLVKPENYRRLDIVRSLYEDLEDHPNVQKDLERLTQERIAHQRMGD"}, "source": "paper PMC9236906", "key": {"[1]": {"molecular_target": "T1, TFAM P50A-Mutant peptide 31-70, biotinylated, after the EGLN3 hydroxylation reaction", "T1 sequence (peptide, biotinylated; subjected to hydroxylation by EGLN3 in vitro)": "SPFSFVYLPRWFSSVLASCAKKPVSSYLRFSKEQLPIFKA", "assay": "pull-down; biotinylated TFAM peptide on streptavidin agarose beads, hydroxylation reaction with IVT HA-EGLN (2 h), then IVT 35S-HA-VHL overnight at 4 °C; autoradiography; only the target purified"}, "[2]": {"molecular_target": "T2, TFAM P53/66A-double Mutant peptide 31-70, biotinylated, after the EGLN3 hydroxylation reaction", "T2 sequence (peptide, biotinylated; subjected to hydroxylation by EGLN3 in vitro)": "T1 sequence (peptide, biotinylated; subjected to hydroxylation by EGLN3 in vitro) with A20P, P23A, P36A", "assay": "pull-down; biotinylated TFAM peptide on streptavidin agarose beads, hydroxylation reaction with IVT HA-EGLN (2 h), then IVT 35S-HA-VHL overnight at 4 °C; autoradiography; only the target purified"}, "[3]": {"molecular_target": "T3, Hydroxy-HIF2α-P-OH 531 peptide (residues 521 to 543), biotinylated", "T3 sequence (peptide, hydroxyproline at 531; biotinylated)": "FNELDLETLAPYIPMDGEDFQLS", "assay": "pull-down; synthetic biotinylated hydroxylated or naïve peptides on beads, capture of IVT 35S-VHL (WT or disease mutants); autoradiography; only the target purified"}, "[4]": {"molecular_target": "T4, Hydroxy-TFAM-P-OH-53/66 peptide 31-70, biotinylated, synthesized with hydroxyprolines 53 and 66", "T4 sequence (peptide, hydroxyproline at 53 and 66; biotinylated)": "T1 sequence (peptide, biotinylated; subjected to hydroxylation by EGLN3 in vitro) with A20P", "assay": "pull-down; synthetic biotinylated hydroxylated or naïve peptides on beads, capture of IVT 35S-VHL (WT or disease mutants); autoradiography; only the target purified"}, "[5]": {"molecular_target": "T3, Hydroxy-HIF2α-P-OH 531 peptide (residues 521 to 543), biotinylated", "assay": "pull-down; biotinylated peptides on streptavidin beads incubated with whole-cell lysates of 786-O or A498 cells expressing HA-VHL for 4 h at 4 °C; immunoblot; only the target purified"}, "[6]": {"molecular_target": "T4, Hydroxy-TFAM-P-OH-53/66 peptide 31-70, biotinylated, synthesized with hydroxyprolines 53 and 66", "assay": "pull-down; biotinylated peptides on streptavidin beads incubated with whole-cell lysates of 786-O or A498 cells expressing HA-VHL for 4 h at 4 °C; immunoblot; only the target purified"}, "[7]": {"molecular_target": "T5, purified His-TFAM, hydroxylated by EGLN3 wild-type (UniProt Q00059)", "T5 sequence (chain, hydroxylated in vitro by EGLN3 wild-type (sites not mapped on this protein))": "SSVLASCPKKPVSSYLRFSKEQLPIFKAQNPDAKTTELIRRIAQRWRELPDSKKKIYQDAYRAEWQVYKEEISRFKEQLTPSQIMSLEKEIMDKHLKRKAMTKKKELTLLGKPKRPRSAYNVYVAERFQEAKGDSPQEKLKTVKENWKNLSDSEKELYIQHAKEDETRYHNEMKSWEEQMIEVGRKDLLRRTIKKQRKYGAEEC", "assay": "pull-down; purified His-TFAM (2 μM) on His-tag Dynabeads, hydroxylation reaction with IVT EGLN3 WT or H196A, incubation with purified VHL for 2 h at room temperature, wash, then LONP1 degradation buffer; immunoblot of bound complexes; both purified"}}, "note": "Where a chain is given by its changes, count along the chain named. These are yes or no findings as the source states them, for the method shown. For some assays here: In cells and extracts the contact can be indirect. Some results given as binding are weak or reduced against the parent protein; the word gives no strength. For some assays here: Where a sequence is shown, tags or fusion partners need not be part of it.", "data": [{"substance": "35S-labeled HA-VHL wild-type, in vitro translated (from UniProt P40337 1-213)", "values": [{"measurement": "binding", "setting": "[1]", "value": "binds"}, {"measurement": "binding", "setting": "[2]", "value": "no binding"}]}, {"substance": "35S-labeled VHL R200W (Chuvash polycythemia mutant), in vitro translated (from UniProt P40337 1-213)", "values": [{"measurement": "binding", "setting": "[3]", "value": "binds"}, {"measurement": "binding", "setting": "[4]", "value": "binds"}]}, {"substance": "35S-labeled VHL Y98H (type 2A mutant), in vitro translated (from UniProt P40337 1-213)", "values": [{"measurement": "binding", "setting": "[3]", "value": "binds"}]}, {"substance": "HA-VHL^R200W (Chuvash mutant), expressed in 786-O cells (from UniProt P40337 1-213)", "values": [{"measurement": "binding", "setting": "[5]", "value": "binds"}, {"measurement": "binding", "setting": "[6]", "value": "binds"}]}, {"substance": "purified GST-VHL (from UniProt P40337 1-213)", "values": [{"measurement": "binding", "setting": "[7]", "value": "binds"}]}]}
